# According to the supplement of paper PMC12645437, “Orthogonal IMiD-Degron Pairs Induce Selective Protein Degradation in Cells” (ACS Chemical Biology, 2025):
# This is one part of the list.
# Molecular target: no compound (DMSO)
# Assay: log2 fold change of degron read counts, EGFP-low vs EGFP+ sorted cells; higher = lower degron-EGFP level without compound (poor expression or instability)
# Details: compound: DMSO control; 18 h
# 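Also: jurkat cells carrying a lentiviral library of mutant zinc finger degrons fused to EGFP plus mCherry, mCherry+ cells FACS sorted, degron abundance counted by next-generation sequencing.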
row,Sequence,log2 fold change of degron read counts
1,FACPICGAIFTQKGNLLRHIKL,0.435
2,FFCPICGHRFTQKGNLLRHIKL,0.135
3,FWCNICGAAFTQKGNLLRHIKL,0.257
4,FACNVCGATFTQKGNLLRHIKL,0.0604
5,FCCSVCGHRFTQKGNLLRHIKL,0.334
6,LICNQCGFYCTQKGNLLRHIKL,1.29
7,FMCNQCGHPFTQKGNLLRHIKL,0.0871
8,FRCPVCGAIFTQKGNLLRHIKL,0.511
9,FECEQCGANFTQKGNLLRHIKL,-2.08
10,FSCPQCGAMFTQKGNLLRHIKL,-1.11
11,FQCEVCGADFTQKGNLLRHIKL,-2.33
12,FVCNQCGRWFTQKGNLLRHIKL,0.359
13,LYCNQCGFRCTQKGNLLRHIKL,0.838
14,FHCEVCGAMFTQKGNLLRHIKL,-1.65
15,FRCNQCGHCFTQKGNLLRHIKL,0.186
16,FECNQCGAPFTQKGNLLRHIKL,-1.35
17,FKCNVCGANFTQKGNLLRHIKL,-1.34
18,FECPQCGAYFTQKGNLLRHIKL,-0.948
19,FMCDICGAVFTQKGNLLRHIKL,-0.816
20,FRCDVCGAAFTQKGNLLRHIKL,-0.879
21,FHCNQCGASFTQKGNLLRHIKL,-0.718
22,FCCNICGAFFTQKGNLLRHIKL,0.257
23,FYCPVCGACFTQKGNLLRHIKL,0.389
24,FVCEICGRKFTQKGNLLRHIKL,-0.684
25,FSCDICGAQFTQKGNLLRHIKL,-1.32

row,Sequence,log2 fold change of degron read counts
1,LGCNQCGFKCTQKGNLLRHIKL,1.06
2,FRCEICGACFTQKGNLLRHIKL,-1.69
3,FGCPQCGATFTQKGNLLRHIKL,-0.787
4,FKCPQCGASFTQKGNLLRHIKL,-0.375
5,FSCDQCGAWFTQKGNLLRHIKL,-0.301
6,LKCNQCGFDCTQKGNLLRHIKL,-0.266
7,FRCEVCGAPFTQKGNLLRHIKL,-1.35
8,FCCEQCGAWFTQKGNLLRHIKL,0.227
9,FICPICGAQFTQKGNLLRHIKL,-0.0155
10,FHCEVCGACFTQKGNLLRHIKL,-1.66
11,FCCNVCGASFTQKGNLLRHIKL,-1.23
12,FRCPVCGAYFTQKGNLLRHIKL,1.08
13,FHCNQCGRDFTQKGNLLRHIKL,-1.39
14,FYCPICGHYFTQKGNLLRHIKL,0.256
15,FCCPVCGALFTQKGNLLRHIKL,-0.0431
16,FTCPQCGATFTQKGNLLRHIKL,-0.324
17,FACEICGHFFTQKGNLLRHIKL,0.206
18,FICPICGHVFTQKGNLLRHIKL,-0.117
19,FKCNQCGHTFTQKGNLLRHIKL,-0.178
20,FHCSVCGHFFTQKGNLLRHIKL,0.882
21,FFCEQCGAGFTQKGNLLRHIKL,-1.18
22,FICEICGHAFTQKGNLLRHIKL,-2.28
23,FMCPQCGAAFTQKGNLLRHIKL,-0.747
24,FECDVCGAYFTQKGNLLRHIKL,-1.31
25,FYCNQCGHQFTQKGNLLRHIKL,0.244
